Laboratory results from patent US20210147571A1, “MONOCLONAL ANTIBODY TARGETING HUMAN TUMOR STEM CELLS AND USE THEREOF” (Suzhou Bojuhua Biomedical Technology Co. Ltd, priority 2017, published 2021).
“And” between values parts separate entries of the source, which are not always exact repeats. Equal entries are not always repeated.

Key:
[1] = tested on: BGC-823 sphere cells; test: sphere-forming inhibition (self-renewal); assay type: cell-based, human
Description: (§1) The main manifestation of the self-renewal ability of tumor stem cells is the ability to form spheres in serum-free medium, which is called asymmetric division, that is, when one cell divides into two daughter cells, one of the daughter cells maintains the same features as the parental cell, while the other daughter cell may continue to divide, forming normal daughter cells. […] And then Hetumomab (250 μg/mL) was used as the experimental group, and the PBS was used as a negative control group to incubate with the cells at 37° C. for 2 h, during which the cells were mixed with the antibody or the negative control once every half an hour. 500 cells in each group were inoculated into a semi-solid sphere medium (containing EGF, LIF, bFGF, etc.) containing 0.8% methylcellulose, and cultured in an ultra-low adhesion 24-well plate. 1-1.5 mL liquid medium was added every other day, and the number of spheres formed from the two groups was observed after 14 days.

[2] = tested on: Bel7402-V13 sphere cells; test: sphere-forming inhibition (self-renewal); assay type: cell-based, human
Description: as §1

[3] = tested on: Hetumomab target antigen in liver, lung, gastric cancer tissue sections; test: immunohistochemistry of antigen-positive and negative tissue sections; assay type: binding, human
[4] = tested on: BGC-823 cells; test: flow immunofluorescence, positive cells in parental and sphere cells; assay type: binding, human
Description: (§2) The human gastric cancer cell line SNU-5 and BGC-823 cells were cultured for 5 days in a serum-free manner, and the Hetumomab^+ cells in the parental cells and in the cells from sphere culture were detected by viable cell flow fluorescence cytometry. […] That is, after the serum-free culture, Hetumomab^+ cells of the gastric cancer cell line were enriched.
(§3) As described above, four cell lines, SNU-5, BGC-823, MHCC-97L, and BEL7402 V13, were used to harvest both parental cells and tumor-stem-cell-rich sphere cells. […] The results are as follows:
(§4) According to the aforementioned method, four cell lines, SNU-5, BGC-823, MHCC-97L, and BEL7402 V13, were used to harvest both parental cells and tumor-stem-cell-rich sphere cells. […]

[5] = tested on: SNU-5 cells; test: as above; assay type: binding, human
Description: as §2, §3, §4

[6] = BGC-823, antibody 20 ug/ml, Table 33
[7] = BGC-823, antibody 40 ug/ml, Table 27
[8] = BGC-823, antibody 40 ug/ml, Table 33
[9] = BGC-823, antibody 80 ug/ml, Table 27
[10] = BGC-823, antibody 80 ug/ml, Table 33
[11] = BGC-823, antibody 144 ug/ml, Table 27
[12] = BGC-823, antibody 160 ug/ml, Table 33
[13] = BEL7402 V13, antibody 10 ug/ml, Table 27
[14] = BEL7402 V13, antibody 10 ug/ml, Table 33
[15] = BEL7402 V13, antibody 20 ug/ml, Table 27
[16] = BEL7402 V13, antibody 20 ug/ml, Table 33
[17] = BEL7402 V13, antibody 40 ug/ml, Table 27
[18] = BEL7402 V13, antibody 40 ug/ml, Table 33
[19] = BEL7402 V13, antibody 80 ug/ml, Table 27
[20] = BEL7402 V13, antibody 80 ug/ml, Table 33
[21] = BEL7402 V13, antibody 144 ug/ml, Table 27
[22] = BEL7402 V13, antibody 160 ug/ml, Table 33

B1: Hetuximab: human-mouse chimeric antibody derived from Hetumomab; heavy chain SEQ ID NO:9, light chain SEQ ID NO:10 (antibody)
heavy: QVTLKESGPGILQPSQTLSLTCSFSGFSLSTSGMGVSWIRQPSGKGLEWLAHIYWDDDKRYNPSLKSRLTISKDSSNNQVFLKITSVDTADTATYYCARSFYYYANNSFAYWGQGTLVTVSS[human IgG1 constant region left out here]
light: DIVMTQAAFSNPVTLGTSASISCRSSKSLLHSNGITYLYWFLQKPGQSPQLLIYQMSNLASGVPDRFSSSGSGTDFTLRISRVEAEDVGVYYCAQNLELYTFGGGTKLEIKRTVAAPSVFIFPPSDEQLKSGTASVVCLLNNFYPREAKVQWKVDNALQSGNSQESVTEQDSKDSTYSLSSTLTLSKADYEKHKVYACEVTHQGLSSPVTKSFNRGEC
modifications: Hetuximab chimeric antibody heavy chain amino acid sequence; Hetuximab chimeric antibody light chain amino acid sequence
- Inhibition Rate (%) ([1]; BGC-823, antibody 20 ug/ml, Table 27): 22.8%
- Average number of formed spheres [1, 6]: 187
- Inhibition Rate (%) [1, 6]: 26.1%
- Average number of formed spheres [1, 7]: 161.5
- Inhibition Rate (%) [1, 7]: 31.9%
- Average number of formed spheres [1, 8]: 167
- Inhibition Rate (%) [1, 8]: 34.0%
- Average number of formed spheres [1, 9]: 148
- Inhibition Rate (%) [1, 9]: 37.6%
- Average number of formed spheres [1, 10]: 150.5
- Inhibition Rate (%) [1, 10]: 40.5%
- Average number of formed spheres [1, 11]: 132
- Inhibition Rate (%) [1, 11]: 44.3%
- Average number of formed spheres [1, 12]: 131
- Inhibition Rate (%) [1, 12]: 48.2%
- Average number of formed spheres [2, 13]: 190
- Inhibition Rate (%) [2, 13]: 16.3%
- Average number of formed spheres [2, 14]: 195.5
- Inhibition Rate (%) [2, 14]: 15.0%
- Average number of formed spheres [2, 15]: 169.5
- Inhibition Rate (%) [2, 15]: 25.3%
- Average number of formed spheres [2, 16]: 175
- Inhibition Rate (%) [2, 16]: 23.9%
- Average number of formed spheres [2, 17]: 143.5
- Inhibition Rate (%) [2, 17]: 36.8%
- Average number of formed spheres [2, 18]: 148
- Inhibition Rate (%) [2, 18]: 35.7%
- Average number of formed spheres [2, 19]: 124
- Inhibition Rate (%) [2, 19]: 45.4%
- Average number of formed spheres [2, 20]: 127
- Inhibition Rate (%) [2, 20]: 44.8%
- Average number of formed spheres [2, 21]: 106
- Inhibition Rate (%) [2, 21]: 53.3%
- Average number of formed spheres [2, 22]: 103
- Inhibition Rate (%) [2, 22]: 55.2%
- staining of negative tissue sections ([3]; 3 negative sections, Example 8): failed to stain
- staining of target antigen-positive tissue sections ([3]; 3 positive sections, Example 8): positively stain
- staining of negative tissue sections ([3]; 10 negative sections, Example 11): did not stain
- staining of target antigen-positive tissue sections ([3]; 10 positive sections, Example 11): positively stain
- positive rate, Parental Cells ([4]; BGC-823, Table 26): 5.5%
- positive rate, Sphere Cells ([4]; BGC-823, Table 26): 6.8%
- positive rate, Parent ([4]; BGC-823, Table 32): 4.12% and 3.28%
- positive rate, Sphere ([4]; BGC-823, Table 32): 6.55% and 5.39%
- positive rate, Parental Cells ([5]; SNU-5, Table 26): 7.92%
- positive rate, Sphere Cells ([5]; SNU-5, Table 26): 11%
- positive rate, Parent ([5]; SNU-5, Table 32): 4.35% and 3.68%
- positive rate, Sphere ([5]; SNU-5, Table 32): 7.66% and 6.24%
